In the RNAGym collection of RNA variant scans (doi:10.1093/nar/gkz1192):
Read counts are not given, so values of variants with three or more changes are uncertain.

B1: CPEB3 Ribozyme (parent)
chain: UAACAGGGGGCCACAGCAGAAGCGUUCACGUCGCAGCCCCUGUCAGAUUCUGGUGAAUCUGCGAAUUCUGCUGUAUAUCUC

Variants of: B1
Assay: self-cleavage, relative activity (ratio to wild type); higher = more cleavage; in vitro, sequencing
Summary of the method: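 Relative activity compares each variant's cleaved/total read fraction with that of the unmutated ribozyme. To get these fractions, barcoded CPEB3 ribozyme libraries from rounds of error-prone PCR were transcribed with T7 RNA polymerase for 5 hours at 37°C and then given 15 min of DNase I treatment before EDTA was added. The RNAs were reverse transcribed with template switching and sequenced on Illumina, and DNA sequencing linked barcodes to variants. A minimum of 5 reads applied, and three batches were averaged.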

Variant | self-cleavage
U1A A2C A35G G52A | 1.23
U1A A2C G9A U25A C32A U58C | 0.19
U1A A2C U25A U41C U67A | 0.08
U1A A2G A5U | 1.01
U1A A2G A5U A15U U25C U49A U78A | 0.13
U1A A2G A20G | 0.69
U1A A2G A21G A47G A65G U78A | 0.27
U1A A2G A45G A56U U58C U67A | 0.19
U1A A2G C11G A13U U54A | 0.78
U1A A2G C14U A18G A65G | 0.25
U1A A2G G9U A18U U25A A45G | 0.14
U1A A2G U25G A57G U80C | 0.94
U1A A2G U31A U48C U74C | 0.15
U1A A2G U49C U76A | 0.26
U1A A2U A20U U43C U48C G55U | 0.18
U1A A2U C32U U58C C62U G73A | 0.19
U1A A2U U26C U60C | 0.38
U1A A2U U78A U80A | 1.13
U1A A3C A47U A57U A64G | 0.69
U1A A3C C4A A5G A18U G61A U78C | 0.17
U1A A3C U26C U69C | 0.31
U1A A3C U72A | 1.22
U1A A3G A15C A64U | 0.31
U1A A3G A20G U31C U41A U69C | 0.12

Variant | self-cleavage
U1A A3G A20U U26C U72C A75U | 0.64
U1A A3G A28G C32A U41C | 0.09
U1A A3G A35G U49C U69C | 0.95
U1A A3G A45G G70A U78C | 0.73
U1A A3G C29U A45U A64U | 0.13
U1A A3G C37U U43G A64U | 0.48
U1A A3G U69C U78A | 0.76
U1A A3U A18C U41A U60C A77G U80A | 0.15
U1A A3U A18G G24A U54C A56G | 0
U1A A3U A21G U67C U78C | 0.26
U1A A3U C23G | 0.14
U1A A3U U25C U69C U72C | 0.09
U1A A3U U48C | 0.75
U1A A5C U26C U54A U58A A64U | 0.13
U1A A5C U41C A56U | 0.37
U1A A5G A13G A18U A57G A77G | 0.22
U1A A5G A20U G53A A77G | 0.43
U1A A5G C11U A56U U60A A75U | 0.12
U1A A5G G9A U41A U69A | 0.21
U1A A5G U43A | 0.71
U1A A5U C29U U31C | 0.45
U1A A5U G8A A18G U60C | 0.07
U1A A5U G9U C71U U80C | 0.59
U1A A5U G19A | 0.56

Variant | self-cleavage
U1A A5U G30A C68U U72A U80C | 0.12
U1A A5U U41G G46A U54C A57G | 0.24
U1A A13C A15G U25A | 0.11
U1A A13G A15G A21G | 0.34
U1A A13G A15G U26A A56G A65U U72C | 0.12
U1A A13G A21G A28C A65G U80A | 0.08
U1A A13G A28G G42A | 0.25
U1A A13G A45G A47G A56G U60A | 0.36
U1A A13G G19A C34A A45G U69C U72A | 0.06
U1A A13G U31C U49C U74A | 0.32
U1A A13G U41C A65G | 0.26
U1A A13G U43G A64U U72A A75G U78C | 0.03
U1A A13U A18G U69A | 0.89
U1A A13U A21G U41A A57U C71U | 0.05
U1A A13U G22A U31A A35G A45C U48C | 0.06
U1A A13U G46C A47G U51A A56G | 0.07
U1A A13U U26A U31C U41C G46U A56U | 0.15
U1A A13U U31C A56G A77U U78C | 0.78
U1A A13U U41C A47U U58C U67A | 0.21
U1A A13U U66C | 0.54
U1A A15C A18U G33A U80A | 0.17
U1A A15C A21G U25A U54A U60C U78C | 0.08
U1A A15G A20U A77U | 0.11
U1A A15G A28G G33A A35G | 0.13

Variant | self-cleavage
U1A A15G A35U U80C | 0.49
U1A A15G A45G U72C | 0.93
U1A A15G G16U U25C U41C A65G U66C | 0.16
U1A A15G U54A | 0.81
U1A A15G U69C | 0.35
U1A A15U C59U U69C U72C U78C | 0.12
U1A A15U U25C U43A U49C | 0.11
U1A A15U U25C U51A U72G | 0.35
U1A A18C A21G U25C A28G U74C | 0.77
U1A A18C A75G | 0.36
U1A A18C U26C A35G U43C U51C | 0.05
U1A A18G A28C A56G | 0.4
U1A A18G A35G U72C U78A | 1.29
U1A A18G U25C C27U U60C C62A | 0.06
U1A A18U A21G U31A C39U U72C U76C | 0.09
U1A A18U A35G A56C U69C | 0.38
U1A A18U G19C U41C U80C | 0.4
U1A A18U U26A U41A | 0.28
U1A A18U U43C G46A U49C U54C U69C | 0.09
U1A A18U U51C C59G A64U | 0.18
U1A A20C A45G A56G | 0.35
U1A A20C U51A | 0.38
U1A A20G A21G U78A | 0.51
U1A A20G A28G U41A | 0.08

Variant | self-cleavage
U1A A20G A35G A47G U54C A64G | 1.13
U1A A20G A35G A56U | 0.63
U1A A20G A35G U54C U72C U76A A77G | 1.19
U1A A20G A56G | 0.41
U1A A20G U31A G33A C39U | 0.28
U1A A20G U31A U54C U72C | 0.38
U1A A20G U60C U72C U78C | 0.32
U1A A20U A21U U48C A64G | 0.1
U1A A20U A56G A64G U72A | 0.11
U1A A20U A64G U69C | 0.08
U1A A20U A77U | 0.21
U1A A20U U43C U72C | 0.11
U1A A21G A28G U31C U72G A75C | 0.03
U1A A21G A35G U51A A65G | 0.5
U1A A21G A45G A56G A64C | 0.2
U1A A21G C27A U48A U78A | 0.09
U1A A21G C29U C40U A45G | 0.08
U1A A21G G24U A28G U58G U72C | 0.07
U1A A21G U41C | 0.58
U1A A21G U41C U43A U74C | 0.5
U1A A21G U72C | 0.55
U1A A21U A57G A64G | 0.36
U1A A21U U26A U69C | 0.09
U1A A28C G53U G61U | 0.25

Variant | self-cleavage
U1A A28G A56G C68U | 0.17
U1A A28G C39A U54C | 0.19
U1A A28G U51C G61C | 0.1
U1A A28U C38U U54C | 0.57
U1A A28U U69G | 0.52
U1A A35C C40U A45U A56C A75U | 0.15
U1A A35G A57G U60C | 0.8
U1A A35G A64G | 1.23
U1A A35G A64G A65G | 0.58
U1A A35G C50U A64U | 0.88
U1A A35G G42U U67C U72C | 0.08
U1A A35G G70A U74C | 1.25
U1A A35U A56G | 0.18
U1A A35U U43C C50A U60C U72A | 0.08
U1A A35U U58C U76A U80A | 0.21
U1A A35U U69A | 0.33
U1A A45G U51A | 0.54
U1A A45U U58G U60A | 0.21
U1A A47G A56G A57G U58C U74C | 0.88
U1A A47G A57C U74C | 0.37
U1A A47G U49A | 0.24
U1A A47G U78C | 0.91
U1A A56G A75G | 0.6
U1A A56G U58C A64U | 0.14

Variant | self-cleavage
U1A A57G A75G | 0.57
U1A A64G G73A | 1.24
U1A A65G U72C | 0.25
U1A C4A G9C A18G G30A U69C U74C | 0.06
U1A C4G A75U | 1.25
U1A C4U A13U U41C C71A | 0.62
U1A C11A U25C U51A | 0.08
U1A C11G A20G A28G U31A C39U U49C | 0.02
U1A C11U A21G | 0.37
U1A C11U A28G U72A U80C | 0.46
U1A C11U G16U A18U U66C | 0.08
U1A C11U G63C U72A | 0.12
U1A C11U U25C | 0.23
U1A C11U U31G A45U U80C | 0.06
U1A C11U U41A G42C C62U G73A | 0.06
U1A C12U A13G A20G A47G | 0.36
U1A C12U A21G U25C A28G U74C | 0.03
U1A C12U G19U A57U U66C | 0.11
U1A C12U U25C A47U G52A U67G U69C | 0.05
U1A C23A A56G A64G U69C U80C | 0.15
U1A C23A U51A A56U U60A | 0.05
U1A C23G U76C A77U | 0.21
U1A C29G U67A | 0.08
